Measurements published in PubChem BioAssay AID1476 (National Center for Advancing Translational Sciences (NCATS), 2009).
Out of some 200,000 compounds screened, about 4,500 (2.2%) were called active. Inconclusive means that the source gave no clear call. Such entries were picked first, then a sample of the others. Calls come from the whole dose curve; as a rule, active = well fitted inhibition curve with a large enough effect; inconclusive = small, poorly fitted or top-dose-only effect, or effect the other way; inactive = flat fitted curve, though single readings scatter. A potency beside an inconclusive call is a rough fit, not a confirmed value.

Target: Cruzipain (Trypanosoma cruzi) (UniProt P25779)
Test: qHTS Assay for Promiscuous and Specific Inhibitors of Cruzain (without detergent); note: nearly all actives have a fitted effect of over 40% in size;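 for max response, negative = inhibition: plate controls were enzyme without inhibitor for no effect and buffer without enzyme for full effect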
Conditions: purified cruzain, Z-FR-AMC fluorescence, no detergent
Outline: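 Purified cruzain at 1.5 nM, pre-incubated 15 min with compound at room temperature in 100 mM sodium acetate pH 5.5, 5 mM DTT, 0.00005% Triton X-100. Reaction started with 2 uM Z-FR-AMC; AMC fluorescence increase over 60 s gives rate.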
Potency is the fitted concentration of half-maximal effect; tags give direction and shape of the fitted curve.

Chain of UniProt P25779 (P25779 whole entry, looked up): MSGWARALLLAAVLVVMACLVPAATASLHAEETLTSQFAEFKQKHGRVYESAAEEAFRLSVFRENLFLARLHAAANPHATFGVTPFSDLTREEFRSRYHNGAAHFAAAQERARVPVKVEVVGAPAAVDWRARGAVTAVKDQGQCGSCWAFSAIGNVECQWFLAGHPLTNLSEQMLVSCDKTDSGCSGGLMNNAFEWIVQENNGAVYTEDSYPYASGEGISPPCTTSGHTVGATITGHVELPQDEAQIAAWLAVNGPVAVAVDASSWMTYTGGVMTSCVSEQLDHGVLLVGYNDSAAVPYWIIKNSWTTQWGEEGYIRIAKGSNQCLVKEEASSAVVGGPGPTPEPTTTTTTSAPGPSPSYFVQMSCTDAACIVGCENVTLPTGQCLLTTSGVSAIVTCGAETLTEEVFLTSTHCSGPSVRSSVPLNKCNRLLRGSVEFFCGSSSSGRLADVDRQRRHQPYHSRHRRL

Compound | Potency | max response, negative = inhibition
COc1ccc(-n2nc(C(=O)NCCc3ccc(OC)c(OC)c3)c3c4ccccc4n(C)c3c2=O)cc1 | inconclusive: 6.31 µM [activator, single point] | 
CCOC(=O)N1CCN(C(=O)CSCC(=O)Nc2nc(-c3ccc(OC)cc3)cs2)CC1 | inconclusive: 3.16 µM [activator, single point] | 
COc1ccc(C(c2ccc(OC)cc2)C(Cl)(Cl)Cl)cc1 | inconclusive: 31.6 µM [inhibitor, partial curve, poor fit] | 
CCn1c2ccccc2c2cc(/C=N/NC(=O)c3ccccc3)ccc21 | active: 31.6 µM | 
Cc1ccc(CN2C(=O)SC(Nc3ccc(Cl)cc3)C2=O)cc1 (stereo not given) |  | inactive: -3.9%
CCCCCCCC1Cc2ccccc2C(C(C(=O)OC)C(=O)OC)N1C(=O)OC (stereo not given) | inconclusive: 39.8 µM [activator, single point] | 
O=CNCCCc1nc2ccccc2n1Cc1cccc2ccccc12 | inconclusive: 39.8 µM [activator, single point] | 
O=C(NCc1cccc(Cl)c1)c1ccc(NC(=O)N2CCSc3ccccc32)cc1 | inconclusive: 39.8 µM [inhibitor, single point] | 
COc1ccc(-c2cc3ccc(O)c(CN4CCCC(C)C4)c3oc2=O)cc1OC (stereo not given) |  | inactive: -4.76%
Cc1cccc(OCC(=O)NC(=S)N2CCCc3ccccc32)c1 | inconclusive: 39.8 µM [inhibitor, single point] | 
CC(Oc1ccccc1)C(=O)Nc1ccc(C(=O)OCc2cc(=O)n3nc(C4CC4)sc3n2)cc1 (stereo not given) | inconclusive: 39.8 µM [activator, single point] | 
Nc1nnnn1CCO |  | inactive: 1.25%
CCOC(=O)c1sc(NC(=O)CSc2nnc(-c3ccco3)n2CC)c(C(=O)OCC)c1C | inconclusive: 39.8 µM [activator, single point] | 
CN1CCCC2(CCN(S(=O)(=O)c3ccccc3)CC2)C1 |  | inactive: -11.9%
CCOC(=O)/C(C#N)=N/Nc1ccc(S(=O)(=O)N2CCc3ccccc32)cc1 | active: 25.1 µM | 
N#Cc1c(-c2ccccc2)nc(N2CCOCC2)[nH]c1=O | inconclusive: 5.01 µM [activator, single point] | 
CC(=O)c1cc2c(cc1NC(=O)c1ccc(C)cc1)OCO2 | inconclusive: 39.8 µM [inhibitor, single point] | 
c1ccc(Nc2nc3ccccc3[nH]2)nc1 | active: 10 µM | 
Cn1c(=O)c(=O)n(C)c2cc(NS(=O)(=O)c3ccc(Br)cc3)c(Cl)cc21 |  | inactive: -5.08%
Cc1nn(-c2ccccc2)c2c1P(=O)(O)/C(=C1\N(C)c3ccccc3C1(C)C)C=N2 | inconclusive: 20 µM [activator, partial curve] | 
